# Some of the results follow.
# Key:
# Test in all cases: glycan array binding signal (z-score within array); higher = stronger binding
# Conditions in all cases: glycan notation: IUPAC condensed, linker removed
# [1] = target: Neu5Ac(a2-3)Gal(b1-3)GalNAc(b1-3)Gal(b1-4)GlcNAc
# In short: (§1)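 The binding signal is a Z-score computed within each array and averaged over linkers. Arrays of the same protein sequence at different concentrations or buffers were also averaged together. Data originate from 3228 arrays in the Consortium for Functional Glycomics database, kept only where the protein sequence was available.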
# [2] = target: Neu5Ac(a2-3)Gal(b1-3)GalNAc(b1-4)[Neu5Ac(a2-3)]Gal(b1-4)Glc
# In short: as §1
# [3] = target: Neu5Ac(a2-3)Gal(b1-3)GalNAc6S
# In short: as §1
# [4] = target: Neu5Ac(a2-3)Gal(b1-3)GlcNAc
# In short: as §1
# [5] = target: Neu5Ac(a2-3)Gal(b1-3)GlcNAc6S
# In short: as §1
# [6] = target: Neu5Ac(a2-3)Gal(b1-3)[Fuc(a1-4)]GlcNAc
# In short: as §1
# [7] = target: Neu5Ac(a2-3)Gal(b1-3)[Fuc(a1-4)]GlcNAc(b1-3)Gal(b1-4)[Fuc(a1-3)]GlcNAc
# In short: as §1
# [8] = target: Neu5Ac(a2-3)Gal(b1-3)[Neu5Ac(a2-3)Gal(b1-4)]GlcNAc
# In short: as §1
# [9] = target: Neu5Ac(a2-3)Gal(b1-3)[Neu5Ac(a2-6)]GalNAc
# In short: as §1
# Neu5Ac(a2-3)Gal(b1-4)Glc = target: Neu5Ac(a2-3)Gal(b1-4)Glc
# In short: as §1
# [10] = target: Neu5Ac(a2-3)Gal(b1-4)GlcNAc
# In short: as §1
# [11] = target: Neu5Ac(a2-3)Gal(b1-4)GlcNAc(b1-2)Man(a1-3)[Neu5Ac(a2-3)Gal(b1-4)GlcNAc(b1-2)Man(a1-6)]Man(b1-4)GlcNAc(b1-4)GlcNAc
# In short: as §1
# [12] = target: Neu5Ac(a2-3)Gal(b1-4)GlcNAc(b1-3)Gal(b1-4)GlcNAc
# In short: as §1
# [13] = target: Neu5Ac(a2-3)Gal(b1-4)GlcNAc(b1-3)Gal(b1-4)GlcNAc(b1-3)Gal(b1-4)GlcNAc
# In short: as §1
# [14] = target: Neu5Ac(a2-3)Gal(b1-4)GlcNAc(b1-3)Gal(b1-4)[Fuc(a1-3)]GlcNAc
# In short: as §1
# [15] = target: Neu5Ac(a2-3)Gal(b1-4)GlcNAc6S
# In short: as §1
# [16] = target: Neu5Ac(a2-3)Gal(b1-4)[Fuc(a1-3)]GlcNAc
# In short: as §1
# [17] = target: Neu5Ac(a2-3)Gal(b1-4)[Fuc(a1-3)]GlcNAc(b1-3)Gal
# In short: as §1
# [18] = target: Neu5Ac(a2-3)Gal(b1-4)[Fuc(a1-3)]GlcNAc(b1-3)Gal(b1-4)GlcNAc
# In short: as §1
# [19] = target: Neu5Ac(a2-3)Gal(b1-4)[Fuc(a1-3)]GlcNAc(b1-3)Gal(b1-4)[Fuc(a1-3)]GlcNAc(b1-3)Gal(b1-4)[Fuc(a1-3)]GlcNAc
# In short: as §1
# [20] = target: Neu5Ac(a2-3)Gal(b1-4)[Fuc(a1-3)]GlcNAc6S
# In short: as §1
# [21] = target: Neu5Ac(a2-3)Gal6S(b1-4)GlcNAc
# In short: as §1
# [22] = target: Neu5Ac(a2-3)Gal6S(b1-4)[Fuc(a1-3)]GlcNAc
# In short: as §1
# Neu5Ac(a2-3)GalNAc = target: Neu5Ac(a2-3)GalNAc
# In short: as §1
# [23] = target: Neu5Ac(a2-3)GalNAc(b1-4)GlcNAc
# In short: as §1
# [24] = target: Neu5Ac(a2-3)[GalNAc(b1-4)]Gal(b1-4)Glc
# In short: as §1
# [25] = target: Neu5Ac(a2-3)[GalNAc(b1-4)]Gal(b1-4)GlcNAc
# In short: as §1
# [26] = target: Neu5Ac(a2-3)[Neu5Ac(a2-6)]GalNAc
# In short: as §1
# Neu5Ac(a2-6)Gal = target: Neu5Ac(a2-6)Gal
# In short: as §1
# Neu5Ac(a2-6)Gal(b1-4)Glc = target: Neu5Ac(a2-6)Gal(b1-4)Glc
# In short: as §1
# [27] = target: Neu5Ac(a2-6)Gal(b1-4)GlcNAc
# In short: as §1
# [28] = target: Neu5Ac(a2-6)Gal(b1-4)GlcNAc(b1-3)Gal(b1-4)GlcNAc
# In short: as §1
# [29] = target: Neu5Ac(a2-6)Gal(b1-4)GlcNAc(b1-3)Gal(b1-4)[Fuc(a1-3)]GlcNAc(b1-3)Gal(b1-4)[Fuc(a1-3)]GlcNAc
# In short: as §1
# [30] = target: Neu5Ac(a2-6)Gal(b1-4)GlcNAc6S
# In short: as §1
# Neu5Ac(a2-6)GalNAc = target: Neu5Ac(a2-6)GalNAc
# In short: as §1
# [31] = target: Neu5Ac(a2-6)GalNAc(b1-4)GlcNAc
# In short: as §1
# Neu5Ac(a2-8)Neu5Ac = target: Neu5Ac(a2-8)Neu5Ac
# In short: as §1
# [32] = target: Neu5Ac(a2-8)Neu5Ac(a2-3)Gal(b1-4)Glc
# In short: as §1
# [33] = target: Neu5Ac(a2-8)Neu5Ac(a2-3)[GalNAc(b1-4)]Gal(b1-4)Glc
# In short: as §1
# [34] = target: Neu5Ac(a2-8)Neu5Ac(a2-8)Neu5Ac
# In short: as §1
# [35] = target: Neu5Ac(a2-8)Neu5Ac(a2-8)Neu5Ac(a2-3)Gal(b1-4)Glc
# In short: as §1
# [36] = target: Neu5Ac(a2-8)Neu5Ac(a2-8)Neu5Ac(a2-3)[GalNAc(b1-4)]Gal(b1-4)Glc
# In short: as §1
# [37] = target: Neu5Ac(a2-8)Neu5Ac(a2-8)Neu5Ac(a2-8)Neu5Ac(a2-3)[GalNAc(b1-4)]Gal(b1-4)Glc
# In short: as §1
# Neu5Ac(b1-6)GalNAc = target: Neu5Ac(b1-6)GalNAc
# In short: as §1
# [38] = target: Neu5Ac(b2-6)Gal(b1-4)GlcNAc
# In short: as §1
# [39] = target: Neu5Ac9Ac(a2-6)Gal(b1-4)GlcNAc
# In short: as §1
# [40] = target: Neu5Gc(a2-3)Gal(b1-3)GlcNAc
# In short: as §1
# [41] = target: Neu5Gc(a2-3)Gal(b1-3)[Fuc(a1-4)]GlcNAc
# In short: as §1
# Neu5Gc(a2-3)Gal(b1-4)Glc = target: Neu5Gc(a2-3)Gal(b1-4)Glc
# In short: as §1
# [42] = target: Neu5Gc(a2-3)Gal(b1-4)GlcNAc
# In short: as §1
# [43] = target: Neu5Gc(a2-3)Gal(b1-4)[Fuc(a1-3)]GlcNAc
# In short: as §1
# [44] = target: Neu5Gc(a2-6)Gal(b1-4)GlcNAc
# In short: as §1
# Neu5Gc(a2-6)GalNAc = target: Neu5Gc(a2-6)GalNAc
# In short: as §1
binder,measurement,setting,value
PMA (Polygonatum multiflorum) (protein) LLTTTLFVFISSTRSLASTNVLYSDVGNAILNAKESLIYGDYRLDMQSDCNLVLYNKAAPYWASGTRWSWGGNCHLNLQSNGELVMYAYLGRTRIAIWRSGIISATGSYALVLKYDGALHVHGPSLWSTNATGPTTPTTASWSIDSTLWSGDVATIGPTIANGDYKLELLDTCNLTLSNTKTGQVLWYTNTTDWVHDCYVNIEGNGELKIKYLGGATLWSNKVGAGYTNNYVLGLRPDGKLDTYNAPIWSPTIGPGVHVAPAVYNASSNAVAAEGNGEKIAMVTGRAKNST,glycan array binding signal (z-score),[1],-0.243
same,glycan array binding signal (z-score),[2],-0.249
same,glycan array binding signal (z-score),[3],-0.25
same,glycan array binding signal (z-score),[4],-0.23
same,glycan array binding signal (z-score),[5],-0.048
same,glycan array binding signal (z-score),[6],-0.252
same,glycan array binding signal (z-score),[7],-0.247
same,glycan array binding signal (z-score),[8],-0.191
same,glycan array binding signal (z-score),[9],-0.266
same,glycan array binding signal (z-score),Neu5Ac(a2-3)Gal(b1-4)Glc,-0.233
same,glycan array binding signal (z-score),[10],-0.251
same,glycan array binding signal (z-score),[11],-0.04
same,glycan array binding signal (z-score),[12],-0.253
same,glycan array binding signal (z-score),[13],-0.179
same,glycan array binding signal (z-score),[14],-0.228
same,glycan array binding signal (z-score),[15],-0.251
same,glycan array binding signal (z-score),[16],-0.241
same,glycan array binding signal (z-score),[17],-0.261
same,glycan array binding signal (z-score),[18],-0.243
same,glycan array binding signal (z-score),[19],-0.248
same,glycan array binding signal (z-score),[20],-0.247
same,glycan array binding signal (z-score),[21],-0.195
same,glycan array binding signal (z-score),[22],-0.011
same,glycan array binding signal (z-score),Neu5Ac(a2-3)GalNAc,-0.195
same,glycan array binding signal (z-score),[23],-0.252
same,glycan array binding signal (z-score),[24],-0.249
same,glycan array binding signal (z-score),[25],-0.252
same,glycan array binding signal (z-score),[26],-0.152
same,glycan array binding signal (z-score),Neu5Ac(a2-6)Gal,-0.247
same,glycan array binding signal (z-score),Neu5Ac(a2-6)Gal(b1-4)Glc,-0.255
same,glycan array binding signal (z-score),[27],-0.249
same,glycan array binding signal (z-score),[28],-0.246
same,glycan array binding signal (z-score),[29],-0.241
same,glycan array binding signal (z-score),[30],-0.215
same,glycan array binding signal (z-score),Neu5Ac(a2-6)GalNAc,-0.182
same,glycan array binding signal (z-score),[31],-0.259
same,glycan array binding signal (z-score),Neu5Ac(a2-8)Neu5Ac,-0.078
same,glycan array binding signal (z-score),[32],-0.253
same,glycan array binding signal (z-score),[33],-0.241
same,glycan array binding signal (z-score),[34],-0.222
same,glycan array binding signal (z-score),[35],-0.239
same,glycan array binding signal (z-score),[36],-0.242
same,glycan array binding signal (z-score),[37],-0.245
same,glycan array binding signal (z-score),Neu5Ac(b1-6)GalNAc,-0.248
same,glycan array binding signal (z-score),[38],-0.245
same,glycan array binding signal (z-score),[39],-0.243
same,glycan array binding signal (z-score),[40],-0.262
same,glycan array binding signal (z-score),[41],0.061
same,glycan array binding signal (z-score),Neu5Gc(a2-3)Gal(b1-4)Glc,-0.232
same,glycan array binding signal (z-score),[42],-0.257
same,glycan array binding signal (z-score),[43],-0.258
same,glycan array binding signal (z-score),[44],-0.257
same,glycan array binding signal (z-score),Neu5Gc(a2-6)GalNAc,-0.182

# From the supplement of paper PMC8728848
